# Earlier results as cited in US8980610B2 (priority 2009, dated 2015).
# Like-named read-outs stand apart in the source and are kept apart here.
# What was measured:
# Conditions in all cases: cited from earlier work
# [1] = tested on: T-even strains of bacteriophage (T2L)
# [2] = tested on: herpes simplex virus type-1 (HSV-1)
# [3] = tested on: T-odd strains of bacteriophage
smiles,measurement,setting,value
"N=C(N)NCCC[C@H](N)C(=O)O [Arginine, arginine]",inactivation of T2L (in words),[1],increasingly ineffective
same,inactivation of T-even bacteriophage (in words),[1],irreversibly inactivated
same,inactivation of HSV-1 (in words),"[2]; low (acidic) pH, samples on ice",can inactivate
same,inactivation of HSV-1 (in words),[2]; pH 5.0-pH 7.0,ineffective
same,inactivation of T-odd bacteriophage (in words),[3],did not inactivate
